Measurements as given in PubChem BioAssay AID504332 (National Center for Advancing Translational Sciences (NCATS), 2011).
Hit rate of the full screen: of about 350,000 compounds, about 31,000 (8.9%) were called active. The shares of active, inactive and inconclusive entries below differ from those in the screen. Calls come from the whole dose curve; as a rule, active = well fitted inhibition curve with a large enough effect; inconclusive = small, poorly fitted or top-dose-only effect; inactive = no such curve, though single readings can be large or run the other way. A potency beside an inconclusive call is a rough fit, not a confirmed value.

What follows are compounds tested against Histone-lysine N-methyltransferase EHMT2 (Homo sapiens) (UniProt Q96KQ7) (assay: qHTS Assay for Inhibitors of Histone Lysine Methyltransferase G9a). Details: G9a H3K9 monomethylation, AlphaScreen, 2 h; activity, negative = inhibition: at 59 µM (top of the series) unless noted.
Procedure, shortened: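 G9a (20 nM) preincubated 15 min RT with compounds, then 500 nM biotinylated H3K9 peptide and 20 uM SAM added; 2 h RT reaction. Monomethyl-H3K9 product detected by AlphaScreen with anti-H3K9me1 antibody, streptavidin donor and anti-rabbit IgG acceptor beads.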
% is set by controls: 0 for no effect and ±100 for the full control effect; potency is the fitted concentration of half-maximal effect; tags give direction and shape of the fitted curve.
Note: nearly all actives have a fitted effect of over 75% in size.

UniProt Q96KQ7, sequence (Q96KQ7 whole entry, looked up): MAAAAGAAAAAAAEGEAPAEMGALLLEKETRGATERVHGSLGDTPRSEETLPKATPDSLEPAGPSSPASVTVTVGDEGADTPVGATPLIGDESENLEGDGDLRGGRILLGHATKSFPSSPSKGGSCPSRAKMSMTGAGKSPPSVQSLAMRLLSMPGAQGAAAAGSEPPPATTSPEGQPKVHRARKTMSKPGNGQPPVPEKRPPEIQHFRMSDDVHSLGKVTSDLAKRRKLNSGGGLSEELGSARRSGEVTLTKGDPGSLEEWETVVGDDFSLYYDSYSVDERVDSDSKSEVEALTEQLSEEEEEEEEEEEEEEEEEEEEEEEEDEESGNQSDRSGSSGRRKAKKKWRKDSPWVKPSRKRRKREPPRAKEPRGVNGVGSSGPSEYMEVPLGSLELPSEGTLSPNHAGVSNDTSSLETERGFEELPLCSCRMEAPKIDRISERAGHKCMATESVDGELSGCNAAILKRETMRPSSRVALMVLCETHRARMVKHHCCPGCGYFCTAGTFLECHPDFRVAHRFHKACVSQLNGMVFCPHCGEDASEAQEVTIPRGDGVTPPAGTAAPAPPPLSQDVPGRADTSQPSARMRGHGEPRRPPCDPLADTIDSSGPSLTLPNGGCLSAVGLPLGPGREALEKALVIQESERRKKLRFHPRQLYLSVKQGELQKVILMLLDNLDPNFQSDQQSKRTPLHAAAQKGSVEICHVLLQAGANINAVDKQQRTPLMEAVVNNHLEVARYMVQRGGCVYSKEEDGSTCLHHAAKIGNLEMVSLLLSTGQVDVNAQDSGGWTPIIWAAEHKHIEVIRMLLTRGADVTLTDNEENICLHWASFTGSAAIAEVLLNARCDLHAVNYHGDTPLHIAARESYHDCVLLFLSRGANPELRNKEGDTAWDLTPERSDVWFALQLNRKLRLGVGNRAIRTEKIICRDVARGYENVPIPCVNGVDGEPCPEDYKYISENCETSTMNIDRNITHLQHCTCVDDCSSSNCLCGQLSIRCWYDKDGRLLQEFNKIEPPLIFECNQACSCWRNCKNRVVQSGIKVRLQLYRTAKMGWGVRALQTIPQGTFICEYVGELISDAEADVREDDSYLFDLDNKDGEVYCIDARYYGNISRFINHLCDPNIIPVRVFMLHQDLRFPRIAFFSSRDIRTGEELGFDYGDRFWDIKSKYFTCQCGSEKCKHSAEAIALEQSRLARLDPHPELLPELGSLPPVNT

| Structure (SMILES) | Potency | activity, negative = inhibition |
| --- | --- | --- |
| COc1cc(/C=N/Nc2ccc(Cl)c(C(=O)O)c2)ccc1OC(=O)c1ccco1 | active: 22.4 µM | – |
| Cc1nc2ccc(NC(=O)c3ccc(Cl)nc3)cc2s1 | inconclusive: 89.1 µM [inhibitor, single point] | – |
| N#Cc1ccc(/C=N/NC(=S)Nc2ccc(S(=O)(=O)N3CCOCC3)cc2)cc1 | – | inactive: 22.9% [at 12.7 µM] |
| COC(=O)C1=C(C)NC(=O)NC1c1ccc(N2CCC(c3ccccc3)=N2)cc1 (stereo not drawn) | inconclusive: 89.1 µM [inhibitor, partial curve, poor fit] | – |
| Cc1sc2nc(CN3CCOCC3)nc(NS(=O)(=O)c3cc(Cl)ccc3Cl)c2c1C | inconclusive: 31.6 µM [inhibitor, single point] | – |
| COc1cccc(C2C(C(=O)c3cccs3)=C(O)C(=O)N2CCN2CCOCC2)c1OC (stereo not drawn) | inconclusive: 50.1 µM [inhibitor, partial curve, poor fit] | – |
| COc1ccc(OC)c(NC(=O)C2CCCN(S(=O)(=O)c3ccc4[nH]c(=O)ccc4c3)C2)c1 (stereo not drawn) | – | inactive: -24.8% |
| CCOc1ccc(Br)cc1S(=O)(=O)NC(=O)c1ccccc1 | – | inactive: 11.4% [at 102 µM] |
| O=C(NCCN1CCOCC1)c1cc([N+](=O)[O-])ccc1Cl | active: 56.2 µM | – |
| CCN(CC)c1ccc(/C=N/NC(=S)NC)c(O)c1 | inconclusive: 39.8 µM [inhibitor, partial curve, poor fit] | – |
| O=C(Cn1c(=O)sc2ccccc21)Nc1ccc(S(=O)(=O)N2CCCC2)cc1 | – | inactive: -48.7% |
| O=C(Nc1ccccc1C(F)(F)F)C1(S(=O)(=O)c2ccc(Cl)cc2)CC1 | – | inactive: -2.16% |
| CCCOC(=O)C1[C@H]2C(=O)N(C(C)c3ccc(OC)cc3)C[C@]23C=C[C@H]1O3 (stereo partly drawn) | inconclusive: 39.8 µM [inhibitor, single point] | – |
| COc1ccc(CN2CCNC(=O)C2CC(=O)NCCc2cnccn2)cc1C (stereo not drawn) | active: 79.4 µM | – |
| COc1ccccc1CNC(=O)[C@@H](NC(=O)C1CCN(C(=O)[C@@H]2CCCN2)CC1)C(C)C | – | inactive: 25.4% [at 12.7 µM] |
| CCOC(=O)CC(=O)CSc1nc2c(sc(=S)n2-c2ccc(C)c(C)c2)c(=O)[nH]1 | inconclusive: 79.4 µM [inhibitor, single point] | – |
| O=C1CCCC(O)=C1C=Nc1ccc2c(c1)oc1ccccc12 | – | inactive: 8.56% |
| CCOCCCNC(=O)C(NC(=O)C1CCC(C)CC1)C(C)C (stereo not drawn) | – | inactive: -3.98% |
| COc1ccc(NC(=O)CSc2nnc(Cc3cccn3C)n2-c2ccc(C)cc2)cc1OC | – | inconclusive: -66.7% [inhibitor] |
| CCOC(=O)N1CCN(C(=S)NC(=O)C23CC4CC(CC(C4)C2)C3)CC1 | inconclusive: 44.7 µM [inhibitor, partial curve, poor fit] | – |
| COCCN1Cc2cccc(C(=O)NCC3CCN(CC(C)C)C3)c2C1=O (stereo not drawn) | inconclusive: 79.4 µM [inhibitor, partial curve, poor fit] | – |
| Fc1ccc(-n2nnc(-c3cccnc3)n2)cc1 | – | inconclusive: -53.5% [inhibitor] |
| O=C(CCn1nc(-c2ccc(Cl)cc2)ccc1=O)NCCCN1CCCCCC1 | inconclusive: 22.4 µM [inhibitor, single point] | – |

| Structure (SMILES) | Potency | activity, negative = inhibition |
| --- | --- | --- |
| Cc1ccc(CCNC(=O)c2cnc3c(C)cccn3c2=O)cc1 | – | inactive: 14.9% |
| COc1ccc(-c2cn3c(n2)sc2cc(C(=O)NCC(C)c4ccccc4)ccc23)cc1 (stereo not drawn) | – | inactive: -4.38% |
| CC1CCCN(C(=O)c2ccc(COc3ccccc3Br)cc2)C1 (stereo not drawn) | – | inactive: -26.8% |
| CCOC(=S)NC(=O)c1sc2ccccc2c1Cl | – | inactive: 28.4% [at 0.501 µM] |
| Cn1cccc1Cc1nnc(SCC(=O)N2CCOCC2)n1-c1ccc(F)cc1 | inconclusive: 25.1 µM [inhibitor, single point] | – |
| O=C1CC[C@H](OCc2ccccc2)CCN1[C@H](CSc1ccccc1)Cc1ccccc1 | inconclusive: 44.7 µM [inhibitor, partial curve, poor fit] | – |
| C=CCN1C(=O)c2ccc(C(=O)N(C)Cc3ccc(C)o3)cc2C1=O | – | inactive: -11.5% [at 2.33 µM] |
| COc1cccc(OC)c1OCCCN1CCC(Cc2ccccc2)CC1 | active: 25.1 µM | – |
| O=C(CN1CCN(c2ccccn2)CC1)Nc1ccc(F)c(F)c1 | – | inactive: -0.355% [at 102 µM] |
| Cc1cc(C)nc(SC2=CS(=O)(=O)c3ccccc32)n1 | inconclusive: 70.8 µM [inhibitor, partial curve] | – |
| COc1ccc(OCC(=O)N2c3ccccc3CCc3ccccc32)cc1 | – | inactive: 58.6% |
| COc1cccc(C(=O)NCc2ccco2)c1OC | inconclusive: 28.2 µM [inhibitor, full curve, poor fit] | – |
| CC(C)c1cc(C(=O)NCc2ccc(F)cc2)no1 | – | inactive: -0.308% |
| CCCCn1c(SCC(=O)Nc2cccc(OC)c2)nc2ccc(N3CCOCC3)cc2c1=O | – | inactive: -3.44% [at 12.7 µM] |
| CN1CCN(c2ccc(NC(=O)C(C)(c3ccccc3)c3ccccc3)cc2)CC1 | inconclusive: 89.1 µM [inhibitor, single point] | – |
| CCS(=O)(=O)n1nc(-c2ccco2)nc1NCc1ccc(C(C)C)cc1 | inconclusive: 20 µM [inhibitor, single point] | – |
| COc1cccc(-n2c(Cc3cc(=O)[nH]c(=O)[nH]3)nnc2SCC(=O)Nc2ccccc2)c1 | inconclusive: 89.1 µM [inhibitor, single point] | – |
| C/C=C/COC(=O)c1[nH]c2c(c1C)C(=O)CC(c1ccco1)C2 (stereo not drawn) | active: 44.7 µM | – |
| O=C(CSc1oc(-c2ccco2)nc1S(=O)(=O)c1ccc(F)cc1)NCC1CCCO1 (stereo not drawn) | inconclusive: 25.1 µM [inhibitor, single point] | – |
| CCCCOc1ccc(N2C(=O)CC(N(CCc3ccccc3)C(=O)/C=C/C(=O)O)C2=O)cc1 (stereo not drawn) | inconclusive: 79.4 µM [inhibitor, single point] | – |
| Cc1cccc(C(=O)NNS(=O)(=O)c2ccccc2[N+](=O)[O-])c1 | inconclusive: 12.6 µM [inhibitor, partial curve, poor fit] | – |
| COC(=O)CSc1nc2sc3c(c2c(=O)n1-c1ccc(OC)cc1)CCN(C)C3 | – | inactive: 11.9% [at 102 µM] |
| COc1ccc(N2CCN(C(c3ccc4ncccc4c3)c3nnnn3C(C)(C)C)CC2)cc1 (stereo not drawn) | inconclusive: 28.2 µM [inhibitor, partial curve, poor fit] | – |

| Structure (SMILES) | Potency | activity, negative = inhibition |
| --- | --- | --- |
| O=S(=O)(NCCOc1ccccc1F)c1cccc(Br)c1 | – | inactive: -2.38% [at 2.33 µM] |
| COc1ccc(CC(C)N2CCN(c3cccc(C(F)(F)F)c3)CC2)cc1OC (stereo not drawn) | inconclusive: 89.1 µM [inhibitor, single point] | – |
| CN(Cc1ccc(Cl)cc1)C(=O)c1ccc2ccccc2n1 | – | inactive: -6.68% [at 102 µM] |
| CCn1c(SCC(=O)O)nnc1-c1ccc(S(=O)(=O)N2CCCC2)cc1 | inconclusive: 89.1 µM [inhibitor, single point] | – |
| O=C(C[N+]1(CC#Cc2ccccc2)CCCCC1)c1ccccc1 | inconclusive: 89.1 µM [inhibitor, single point] | – |
| COc1ccc(NS(=O)(=O)c2cccc(NC(=O)NCCCl)c2)cc1 | inconclusive: 50.1 µM [inhibitor, partial curve] | – |
| O=C(Nc1nccs1)c1ccccn1 | inconclusive: 1.26 µM [inhibitor, full curve, poor fit] | – |
| COC(=O)C1=C(COc2ccc(C=O)cc2OC)NC(=O)NC1c1cc(C)ccc1C (stereo not drawn) | inconclusive: 31.6 µM [inhibitor, single point] | – |
| CCCCN(Cc1cc2ccccc2[nH]c1=O)C(=O)c1ccccn1 | inconclusive: 3.55 µM [inhibitor, full curve, poor fit] | – |
| COC1=C/C(=C/c2c(N)n3nc(CC(=O)N4CCCC4)sc3nc2=O)C=CC1=O | inconclusive: 89.1 µM [inhibitor, single point] | – |
| CC(=O)NC1C(=O)N(C)c2ccc(Br)cc21 (stereo not drawn) | inconclusive: 56.2 µM [inhibitor, partial curve, poor fit] | – |
| COc1cc(NS(=O)(=O)c2cccc3nsnc23)cc(OC)c1 | active: 2 µM | – |
| N#CCCN(C(=O)COC(=O)CNC(=O)c1ccc(-c2ccccc2)cc1)c1ccc(F)cc1 | inconclusive: 3.55 µM [inhibitor, partial curve, poor fit] | – |
| COc1cccc(Nc2nc(-c3cccc(N4C(=O)c5ccccc5C4=O)c3)cs2)c1 | active: 14.1 µM | – |
| COc1ccc(/C=C2\C(=O)NCC(=O)N2C)cc1 | inconclusive: 56.2 µM [inhibitor, partial curve, poor fit] | – |
| O=C(COC(=O)CCC1CCCC1)Nc1cccc(S(=O)(=O)N2CCOCC2)c1 | inconclusive: 3.16 µM [inhibitor, full curve, poor fit] | – |
| N#Cc1ccc(C(=O)OCC(=O)NC(=O)NC2CCCCC2)cc1 | – | inactive: 13.4% [at 2.33 µM] |
| O=C(N/N=C/c1ccccc1[N+](=O)[O-])c1ccncc1 | inconclusive: 79.4 µM [inhibitor, single point] | – |
| CCOc1ccc(S(=O)(=O)Nc2nc3ccccc3nc2N2CCN(C)CC2)cc1 | inconclusive: 1.78 µM [inhibitor, partial curve, poor fit] | – |
| C/C(=N\OCC(=O)NCC(F)(F)F)c1cc2ccccc2o1 | inconclusive: 31.6 µM [inhibitor, single point] | – |
| Cc1ccc(C(=O)N2CCN(Cc3ccc4c(c3)OCO4)CC2)c(Cl)c1 | inconclusive: 0.355 µM [inhibitor, partial curve, poor fit] | – |
| Cc1ccc(C)c(N2CCN(C(=O)CCS(=O)(=O)c3ccc4c(c3)oc(=O)n4C)CC2)c1 | inactive | – |
